Measurements taken from article PMC12136788.
The other results are listed elsewhere or left out.

B1: 73678298_73680048_964_CDS_ENSMUSG00000022105_ENSMUST00000022701|mouse|control|control (ssRNA)
RNA: GGGAGUUCUACAGUCCGACGAUCCUCAUCUAUAUUACACUCGUGUUCUUUACAGAGAACCUCGAUAAUCCUCGUAUCAUUUUCUAGUUGUUUUGCUAUCCGAGCGCUCCUGUUCUGACCUCUUCUGGGUGUUCGAGGUGAACCCAACAGAGGAUUGAGCAUCA
B2: 111650908_111652965_8090_CDS_ENSG00000009413_ENST00000368805|human|control|control (ssRNA)
RNA: GGGAGUUCUACAGUCCGACGAUCCAUUCUUGGUAGUACACCUUUUCUUACUGAAGGCUUGACAAAAGCUACUCCAUUGGGGGACACUGUGAUAUCAUGCCUAACUUGGUAAAGUAAAUCUGGAGGUACUCUCAGAGAGGUACACAACAGAGGAUUGAGCAUCA
B3: chr2:187373433:187373434:+_ENSG00000065548_ENST00000337859|hu_mus|FALSE|FALSE (ssRNA)
RNA: GGGAGUUCUACAGUCCGACGAUCUGACCUAGUUUUCAUCCUCAUCAUUCUUCUAAGUCAAGAGUGUUCAAUUCCUCUUCUAGUUCAUCCAGAUCUUCGCCAGUGAACAGGUUUUCAUCAACAGGAACAGCAUCGAUGGAUCCACAACAGAGGAUUGAGCAUCA
B4: chr1:25551555:25551556:-_ENSG00000117614_ENST00000236273|hu_hu|FALSE|FALSE (ssRNA)
RNA: GGGAGUUCUACAGUCCGACGAUCUAUGACCAUCCUGUCAAUUUCCUCUGUGGAAGGCACAUGUGUUCCAUGAAGAAGACUAUUGGAUGUUGGGAAAAACUCUUCUCCAUGUUUUUCUCUCAGUCUCUCAUAUGUUUCCAUGUCCAACAGAGGAUUGAGCAUCA
B5: 26887487_26892506_356_CDS_ENSG00000120159_ENST00000333916|human|control|control (ssRNA)
RNA: GGGAGUUCUACAGUCCGACGAUCAGUUGGCAAAAUAUAUUUAGUUUCCUGCUGCAAGGAGCCCGAGACGCUGGAAGAGUCGGUACUCCUCCGCUUCCGGCGCUCGCUGCGCUCCACGCUGCUCCCGCCCCAACAGCUGCCGCCCAACAGAGGAUUGAGCAUCA
B6: chr6:114270382:114270383:-_ENSG00000196591_ENST00000368632|hu_mus|motif|central (ssRNA)
RNA: GGGAGUUCUACAGUCCGACGAUCCAUCUCCAUCACUUUUGAGAUGAUAGGCUUAAAAAUUUGUCCAUAUGAUUCAUCAUCGGUACCAUCUCUCAUGGGAAAAUUGACAGCAUAGUAUUUUCCCUUUCCAGCACCAAUAUCCCUCAACAGAGGAUUGAGCAUCA
B7: chr1:185276735:185276736:-_ENSG00000116679_ENST00000392007|hu_mus|FALSE|FALSE (ssRNA)
RNA: GGGAGUUCUACAGUCCGACGAUCAAUAUAAGCGUCAACUUUAUUCAACAAACGGGAGUCUCCCAUACAACUUGCAAAAUUUCGGUAAGAGAUGCAGCUAGUAACAUCCAUUCUAGAUAGUAAAUAAUCUCCGCAGACCUGCUUCAACAGAGGAUUGAGCAUCA
B8: 42731334_42731454_4638_CDS_ENSG00000103994_ENST00000263805|human|control|control (ssRNA)
RNA: GGGAGUUCUACAGUCCGACGAUCCCAAAUAUCCUUUUUAGAUGGGCUGUCUGGUUUCUCUUCUCCUGAUUCUGAAGAAUCAAUGGCUACUACUUCUAACUGAGGAUUAGGAAUUUCUAGGACUUCCAGAGACGAGUCACUAUCCAACAGAGGAUUGAGCAUCA
B9: chr6:83927055:83927056:+_ENSMUSG00000030016_ENSMUST00000032088|mus_hu|motif|central (ssRNA)
RNA: GGGAGUUCUACAGUCCGACGAUCUGUAGCUUUUGCCUUAGGAGAAGAGACUAUAACAGCCUUGAUGCUUGGUUUACUGCGGGAUACAUCUGAUACAGCCAGAAUACUAGUUUUACUAGUUUCAUCAGGCUUAUUAGCCUGACCCAACAGAGGAUUGAGCAUCA
B10: chr1:39494447:39494448:+_ENSG00000168653_ENST00000372967|hu_mus|hu_hu_hu_mus_False|8_88 (ssRNA)
RNA: GGGAGUUCUACAGUCCGACGAUCGCACCGAGCGGCGUUCUUAUAGGGCUGUUCACCGCUUAGGAACAUAAAGUGCCGGUCCAGGCUGAUGCCCAGCUUUUUCUGUAUGUCAAGGAAAGGCAUGGCUGAUGCUCGUGCUUGUCACAACAGAGGAUUGAGCAUCA
B11: chr17:85413340:85413341:+_ENSMUSG00000061130_ENSMUST00000080217|mus_hu|FALSE|FALSE (ssRNA)
RNA: GGGAGUUCUACAGUCCGACGAUCUCAAUUUUACACUAUCUCAUAAAGGUGUAUGCAAAGGCCUUUUUAAAAAACAAGGCUAUCUGAAUAUAAUAAAACUAGUUUUCCAAGAUUCAAAUAACAAAACAGUUAUAUAAAUGCAUACAACAGAGGAUUGAGCAUCA
B12: chr1:214815296:214815297:+_ENSG00000117724_ENST00000366955|hu_hu|FALSE|FALSE (ssRNA)
RNA: GGGAGUUCUACAGUCCGACGAUCAAGUUUUAAUUCCUUAUUUCUUAGCAUAGCUUCUAAUUGCACCAACUGCGCAUUAUAACUAUCUAGAGAAAUUUCUUUAACUUCAAGAUCCAUCUGAGGUUUAAAAUUACAUUGAUUUCUCAACAGAGGAUUGAGCAUCA
B13: chr14:57575763:57575764:+_ENSMUSG00000021945_ENSMUST00000022511|mus_mus|motif|central (ssRNA)
RNA: GGGAGUUCUACAGUCCGACGAUCCACUGUUUUCAGGCCAAAAUACUUAGUGUUAAAGUAGAAUAGGGUAUUCAAAAGUGCGGCUGGAGAGUGGGAUCCUAGUUGUUUUAUCCUCCAGAGAUAGUCUUCUUCAACUCGAGAGAACAACAGAGGAUUGAGCAUCA
B14: chr11:69468634:69468635:+_ENSG00000110092_ENST00000227507|hu_hu|FALSE|FALSE (ssRNA)
RNA: GGGAGUUCUACAGUCCGACGAUCCAGAACACUAGUACAUAACAGAUUAAACAUACCCAAAACUUGAACAAAUUCCAGAAGCUAUUCCAAUCAUCCCGAAUGAGAGUCCUACAGGUACAACGCCGUGGUGGCACGUAAGACACACAACAGAGGAUUGAGCAUCA
B15: chr4:82449818:82449819:-_ENSMUSG00000028403_ENSMUST00000030110|mus_mus|motif|central (ssRNA)
RNA: GGGAGUUCUACAGUCCGACGAUCUGUAAUAAAUGUUUUGUUUUGUAGUAAAAUAGUAUUUUAAGUAAGUUUUUAUAAUGCGGACAAGAUAAGUUGCCAAAAUAAGGUUUAAAGUAAAAUACAUGAAACAGCUUAAACUAAUCGCAACAGAGGAUUGAGCAUCA
B16: chr8:101932682:101932683:-_ENSG00000164924_ENST00000353245|hu_mus|motif|central (ssRNA)
RNA: GGGAGUUCUACAGUCCGACGAUCGACAUGGAAGCAGUUUUAACACUGGCCCUUCUGAAGCCACAAUGUACCAAAAGUACGGUGCCAAACAUGUGUAACUCAUGUAAAAAUUCCACAUCCCAUAUUGGCCACCUCAAGAUGAAACAACAGAGGAUUGAGCAUCA
B17: chr16:57506169:57506170:-_ENSG00000125170_ENST00000340099|hu_mus|motif|central (ssRNA)
RNA: GGGAGUUCUACAGUCCGACGAUCCUGCCACACAUGUGAACAGUGGUUAUUUACAAGGUCUGUUCCCACAAAUCAGAACCCGGAAGUAUUAAAAAACAGAAACACGCAACAAAAGGUUUGAUGUGAAUAGAAAGAUAGCCCUUCCAACAGAGGAUUGAGCAUCA
B18: chr17:64801638:64801639:+_ENSG00000154229_ENST00000413366|hu_mus|hu_hu_hu_mus_False|68_78 (ssRNA)
RNA: GGGAGUUCUACAGUCCGACGAUCUAUAUAUAUAUAUACAUAUGUACACAUAUAUAGUAAGAGCCUAAUCUAUCACGUAAAGUAGCCAUUCAUUUUUAAAAUUACAUCUACAUUAAAAAAUUAAUAUAUCUGAUAGAGUGCCAGCAACAGAGGAUUGAGCAUCA
B19: 83067373_83067493_1321_CDS_ENSMUSG00000030036_ENSMUST00000032114|mouse|control|control (ssRNA)
RNA: GGGAGUUCUACAGUCCGACGAUCGAAAAGAGGGACAGGUGGAAACAGGGCAGGGUCCAUUUUCUGUUCAGACCCUUCCAUGCUAGUGUCUGGCAACACUAAACCCUGUCCAUAGAAGUAACCAAUCCCACCAAGAAGGCCACUCAACAGAGGAUUGAGCAUCA
B20: 3137973_3142276_2923_CDS_ENSG00000197386_ENST00000355072|human|control|control (ssRNA)
RNA: GGGAGUUCUACAGUCCGACGAUCUUGUCCUUGGUCACAUUUAUAAAACAGCUUUGGGACAAGCCUAAUUAGUGAUGCUGCGGCAACAUGUCGCACCCUGGGGUCUUCAUCUCCAAGCAAAUGGAUGACAACAUUAUUGAGCACCAACAGAGGAUUGAGCAUCA
B21: chr14:31888013:31888014:+_ENSMUSG00000042323_ENSMUST00000112095|mus_hu|FALSE|FALSE (ssRNA)
RNA: GGGAGUUCUACAGUCCGACGAUCGCUGAGUGCCGGUGAAAGAAGAAUCUCUCCAUUUUUGCAGAGUUCAUCACGAAUUUUAAUAAAAAACUGCUGAAGUUCUACUGCAUCUUCAUAUAUUUCUGAAUCUGUCCGAUUCAUCCUCAACAGAGGAUUGAGCAUCA
B22: chr1:74670475:74670476:+_ENSG00000254685_ENST00000370898|hu_hu|motif|central (ssRNA)
RNA: GGGAGUUCUACAGUCCGACGAUCGUCCUGUUGACAAAAAUUUCCAGGUCUACACACAGCAUUAAACUGAUACAUCUUUUCGGUGCUGGGCUUAUGAAGGAAACGAUGGCAAGACCUGUAUUCAAGGUCUCUAUGUUUUAAAUCCAACAGAGGAUUGAGCAUCA

target: T1, UNK ZnF1-3 (human, UniProt Q9C0B0 31-174); test: nsRBNS (natural sequence RNA bind-n-seq); RBNS binding buffer (assumed for nsRBNS): 25 mM Tris pH 7.5, 150 mM KCl, 3 mM MgCl2, 0.01% Triton X-100, 500 ug/ml BSA, 20 U/ml SUPERase-In, 4 C; UNK is unkempt and MSI1 is Musashi-1; names of the RNAs are library labels; protein concentration not given here; high values mean tight binding
T1 sequence: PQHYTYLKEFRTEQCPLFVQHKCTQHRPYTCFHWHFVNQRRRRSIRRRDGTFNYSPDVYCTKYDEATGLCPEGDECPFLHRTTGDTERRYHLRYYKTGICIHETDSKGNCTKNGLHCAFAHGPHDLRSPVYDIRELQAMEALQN

Row | Binder | binding signal [enrichment R]
1 | B1 | 0.27
2 | B2 | 0.876
3 | B3 | 1.19
4 | B4 | 0.576
5 | B5 | 0.864
6 | B6 | 0.681
7 | B7 | 1.3
8 | B8 | 0.565
9 | B9 | 0.743
10 | B10 | 0.939
11 | B11 | 0.954
12 | B12 | 0.513
13 | B13 | 1.29
14 | B14 | 2.08
15 | B15 | 2.34
16 | B16 | 0.995
17 | B17 | 2.77
18 | B18 | 1.31
19 | B19 | 0.894
20 | B20 | 1.38
21 | B21 | 0.906
22 | B22 | 1.24
